Measurements reported in PubChem BioAssay AID1508642 (National Center for Advancing Translational Sciences (NCATS), 2021).
Hit rate of the full screen: of about 43,000 compounds, about 200 (0.47%) were called active. Roughly 12% stayed inconclusive and do not appear here. Calls follow the shape of the dose curve; as a rule, active = well fitted cell-killing curve with a large enough effect; inconclusive = small, poorly fitted or top-dose-only effect, or effect the other way; inactive = flat fitted curve, though single readings scatter. This is one part of the list.
% is scaled to controls: 0 for no effect and ±100 for the full control effect.

Experiment: Cell viability qHTS assay in S16 Pmp22-F2sN cells; also: nearly all actives have a fitted effect of over 65% in size
Settings: S16 Pmp22-F2sN Schwann cells (luciferase reporters placed in the Pmp22 gene) viability, CellTiter-Glo, 24 h; series mostly up to 57.5 µM; activity change, negative = cytotoxicity: at the top concentration
Summary of the method: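 Luminescence from CellTiter-Glo, read by CCD camera after a 15 min room-temperature incubation, served as the viability signal. Reporter Schwann cells (S16 Pmp22-F2sN) had been treated with pin-transferred compounds for 24 h at 37C.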
For `CCOc1ccccc1C(=O)Oc1c(S(=O)(=O)c2ccc(C)cc2)c(C)nn1-c1ccccc1`, the “activity change, negative = cytotoxicity” value was inactive: -0.445%.
In the case of `Cc1ccc(CNC(=O)c2ccc(CS(=O)(=O)Cc3ccc(F)cc3)o2)cc1`, the “activity change, negative = cytotoxicity” value is reported as inactive: -2.04%.
With `CCCCc1nn2c(=O)cc(COC(=O)c3cccc(NC(=O)c4cccc(Cl)c4)c3)nc2s1` the “activity change, negative = cytotoxicity” value was inactive: -0.719%.
In the case of `Cc1ccccc1CN1CCc2nc(N3CCN(c4ncccn4)CC3)ncc2C1`, the “activity change, negative = cytotoxicity” value is reported as inactive: -21.3%.
With `COc1ccc(CCCc2nnc(SCC(=O)Nc3cccc(C)c3)o2)cc1C` the “activity change, negative = cytotoxicity” value was inactive: 18.7%.
For `O=C(NC1CCCCC1)c1ccc2c(c1)sc1nc(-c3ccc(F)cc3)cn12`, the “activity change, negative = cytotoxicity” value was inactive: 8.66%.
With `CCOc1ccc(CNC(=O)c2ccc3c(c2)sc2nc(-c4ccccc4)cn23)cc1` the “activity change, negative = cytotoxicity” value was inactive: 1.31%.
For `Cn1cnc(S(=O)(=O)N2CCC(C(=O)Nc3ccc(F)cc3F)CC2)c1`, the “activity change, negative = cytotoxicity” value was inactive: -0.946%.
In the case of `Cc1ccc(-c2noc(CNC(=O)COc3cc(C)c(Br)c(C)c3)n2)cc1`, the “activity change, negative = cytotoxicity” value is reported as inactive: 8.84%.
For `CCOCCc1nnc(NC(=O)C(=O)c2cc(C)n(-c3cccc(C)c3)c2C)s1`, the “activity change, negative = cytotoxicity” value was inactive: -4%.
In the case of `O=C(NC1CCCCC1)c1ccc2c(c1)N(Cc1cccc(F)c1)C(=O)c1ccccc1S2`, the “activity change, negative = cytotoxicity” value is reported as inactive: 16.2%.
With `Cc1ccc(-n2nc(C(=O)N3CCN(c4ccc(F)cc4)CC3)c(=O)n(C)c2=O)cc1` the “activity change, negative = cytotoxicity” value was inactive: 1.77%.
With `CN(C)CCN(C(=O)c1ccco1)c1nc2c(F)cc(F)cc2s1` the “activity change, negative = cytotoxicity” value was inactive: 8.51%.
For `CC1CCN(C(=O)CSc2c3c(nc4ccc(Cl)cc24)CCCC3)CC1`, the “activity change, negative = cytotoxicity” value was inactive: 10.1%.
For `CC1=C(c2ccc(C(C)C)cc2)S(=O)(=O)NC1=NCc1ccccc1C`, the “activity change, negative = cytotoxicity” value was inactive: -9.96%.
With `Cc1nc2c3ccccc3nc(NNC(=O)CCC(=O)N3CCN(c4cccc(Cl)c4)CC3)n2n1` the “activity change, negative = cytotoxicity” value was inactive: 3.02%.
In the case of `Cc1cccc(NC(=O)CSc2nc3ccccc3nc2N2CCC(C)CC2)c1`, the “activity change, negative = cytotoxicity” value is reported as inactive: 20.8%.
In the case of `COc1ccc(S(=O)(=O)N(CC(=O)Nc2ccc(F)c(Cl)c2)c2ccc(C)cc2)cc1OC`, the “activity change, negative = cytotoxicity” value is reported as inactive: 9.69%.
With `O=C(COc1ccc(F)cc1)Nc1nnc(S(=O)(=O)N2CCc3ccccc32)s1` the “activity change, negative = cytotoxicity” value was inactive: -1.44%.
In the case of `Cc1ccc(NC(=O)CSc2nc3ccc(Br)cc3[nH]2)c(C)c1`, the “activity change, negative = cytotoxicity” value is reported as inactive: -21.8%.
For `Cc1ccc(N2CC(C(=O)NCCS(=O)(=O)N3CCN(c4ccccc4F)CC3)CC2=O)cc1` (stereo not given), the “activity change, negative = cytotoxicity” value was inactive: 6.06%.
In the case of `O=C(Nc1ccc(OC(F)(F)F)cc1)C1CCN(S(=O)(=O)c2ccc3[nH]c(=O)ccc3c2)CC1`, the “activity change, negative = cytotoxicity” value is reported as inactive: 8%.
In the case of `COc1cc(C(=O)N2CCN(CCc3ccncc3)CC2)cc(OC)c1OC`, the “activity change, negative = cytotoxicity” value is reported as inactive: 13.9%.
With `COc1cccc(-n2c(=O)c3c(C)c(C(=O)N(C)C)sc3n(Cc3cccc(C)c3)c2=O)c1` the “activity change, negative = cytotoxicity” value was inactive: -18.8%.
With `Cc1ccc(NC(=O)Cn2c(=O)n(CC3CCC(C(=O)NC(C)C)CC3)c(=O)c3sccc32)cc1` (stereo not given) the “activity change, negative = cytotoxicity” value was inactive: 1.64%.
With `COc1ccc(-c2nc(C)c(CCNC(=O)C(=O)Nc3ccccc3F)s2)cc1` the “activity change, negative = cytotoxicity” value was inactive: 13.8%.
For `COc1ccccc1-n1nc(-c2ccccc2)c2cnc3c(F)cc(F)cc3c21`, the “activity change, negative = cytotoxicity” value was inactive: 9.08%.
With `COc1ccc(C(CNC(=O)COc2cc(C)cc(C)c2)N2CCCCC2)cc1` (stereo not given) the “activity change, negative = cytotoxicity” value was inactive: -13.7%.
In the case of `COc1ccc(NC(=O)CSC2=Nc3ccccc3C3=NC(CC(=O)NCc4ccccc4OC)C(=O)N23)cc1Cl` (stereo not given), the “activity change, negative = cytotoxicity” value is reported as inactive: -26.8%.
In the case of `COc1ccc(-c2nc3c4ccccc4n(CC(=O)Nc4ccc(C(C)C)cc4)c(=O)n3n2)cc1`, the “activity change, negative = cytotoxicity” value is reported as inactive: 13.7%.
For `Cc1ccccc1-n1c(SCC(=O)Nc2ccc(Cl)cc2Cl)nc(O)cc1=O`, the “activity change, negative = cytotoxicity” value was inactive: 2.66%.
For `COc1ccc(C2CC(=O)N(Cc3ccccc3C)c3c2c(C)nn3-c2nc(C)cc(C)n2)c(OC)c1` (stereo not given), the “activity change, negative = cytotoxicity” value was inactive: -19.6%.
In the case of `COc1ccc(-c2noc(-c3ccc(N4CCN(C)CC4)c([N+](=O)[O-])c3)n2)cc1`, the “activity change, negative = cytotoxicity” value is reported as inactive: 16.3%.
In the case of `COc1ccc(S(=O)(=O)c2c(O)c(C)cc(NS(=O)(=O)c3ccc(Cl)cc3)c2C(C)C)cc1`, the “activity change, negative = cytotoxicity” value is reported as inactive: -25.8%.
In the case of `Cc1cccc(N(C)S(=O)(=O)c2ccc(-c3cc(C)no3)s2)c1`, the “activity change, negative = cytotoxicity” value is reported as inactive: -16.9%.
With `CC(=O)N1CCc2c(sc3c2c(=O)n(-c2ccc(F)cc2)c(=O)n3Cc2cc(C)ccc2C)C1` the “activity change, negative = cytotoxicity” value was inactive: 1.18%.
For `COc1ccc(N2CC(NC(=O)C(=O)c3c[nH]c4ccccc34)CC2=O)cc1` (stereo not given), the “activity change, negative = cytotoxicity” value was inactive: 0.938%.
For `COc1ccc(CNC(=O)CC(C)n2nc(C)cc2C)cc1` (stereo not given), the “activity change, negative = cytotoxicity” value was inactive: -1.7%.
In the case of `Cc1ccc(-c2nn(-c3ccc(F)cc3F)c3c2cnc2ccc(F)cc23)cc1`, the “activity change, negative = cytotoxicity” value is reported as inactive: -12.7%.
For `Cc1cc(C)cc(NC(=O)N2CCC(C(N)=O)(N3CCCCC3)CC2)c1`, the “activity change, negative = cytotoxicity” value was inactive: 4.95%.
With `COc1ccc(N(C)C(=O)c2nn(-c3ccc(C)cc3)c(=O)n(C)c2=O)c(OC)c1` the “activity change, negative = cytotoxicity” value was inactive: -0.0257%.
For `CCOC(=O)N1CCC(NC(=O)c2cnn(-c3ccc(F)cc3)c2-n2cccc2)CC1`, the “activity change, negative = cytotoxicity” value was inactive: 12.1%.
For `CC1CCCN(c2ncnc3c2cnn3-c2ccc(F)cc2)C1` (stereo not given), the “activity change, negative = cytotoxicity” value was inactive: 10.9%.
In the case of `CCN1c2ccccc2-n2cccc2C12CCN(C(=O)Nc1ccccc1Br)CC2`, the “activity change, negative = cytotoxicity” value is reported as inactive: -7.26%.
With `CCCCn1cc(S(=O)(=O)c2ccccc2)c(=O)c2cc(F)c(N3CCN(CCC)CC3)cc21` the “activity change, negative = cytotoxicity” value was inactive: -14.8%.
In the case of `CCOCCn1ccc2c(OCC(=O)NCc3ccc(F)cc3)cccc2c1=O`, the “activity change, negative = cytotoxicity” value is reported as inactive: 14.3%.
With `O=C(CCSCc1cccc(Cl)c1)NCc1ccccc1Cl` the “activity change, negative = cytotoxicity” value was inactive: 1.55%.
For `CC(C)Oc1ccc(C(=O)N2CCN(c3nc4c(F)cc(F)cc4s3)CC2)cc1`, the “activity change, negative = cytotoxicity” value was inactive: 13.5%.
In the case of `O=c1c(N2CCN(c3ccccc3)CC2)csc2ccc(Cl)cc12`, the “activity change, negative = cytotoxicity” value is reported as inactive: 7.42%.
For `Cc1ccc2nc(NC(=O)c3nc(SCc4ccccc4F)ncc3Cl)sc2c1`, the “activity change, negative = cytotoxicity” value was inactive: -1.59%.
With `Cc1ccc2c(c1)C(=O)C(=O)N2Cc1ccc(OCCC(C)C)cc1` the “activity change, negative = cytotoxicity” value was inactive: -12.3%.
For `COc1ccc(NC(=O)c2oc3ccc(S(=O)(=O)N4CCCCC4)cc3c2C)cc1Cl`, the “activity change, negative = cytotoxicity” value was inactive: 0.0538%.
In the case of `COc1ccc(NC(=O)c2cc(C(C)=O)n3ccccc23)cc1`, the “activity change, negative = cytotoxicity” value is reported as inactive: 13.9%.
In the case of `Cc1ccc(CN2CCC(CNC(=O)c3cnn(-c4ccccc4)c3C3CCN(C(=O)OC(C)(C)C)CC3)CC2)cc1`, the “activity change, negative = cytotoxicity” value is reported as inactive: -0.673%.
With `O=C(O)c1ccc(NCc2nc3ccccc3n2CCOc2ccccc2Cl)cc1` the “activity change, negative = cytotoxicity” value was inactive: -11.1%.
With `O=C(CSc1nc(=O)n(Cc2cccnc2)c2c1CCC2)Nc1cccc(Cl)c1` the “activity change, negative = cytotoxicity” value was inactive: 5.9%.
With `COc1cc2c(=O)n(Cc3ccco3)c(=O)n(CC(=O)Nc3ccc(F)cc3)c2cc1OC` the “activity change, negative = cytotoxicity” value was inactive: 2.67%.
With `CCOc1cc2[nH]c(=O)n(Cc3ccc(C(=O)N4CCN(c5ccccc5)CC4)cc3)c(=O)c2cc1OCC` the “activity change, negative = cytotoxicity” value was inactive: -20.9%.
For `CSc1ncc(Cl)c(C(=O)Nc2cc(C(F)(F)F)ccc2Cl)n1`, the “activity change, negative = cytotoxicity” value was inactive: -2.78%.
In the case of `O=C(CN1CCN(c2ccc(Cl)cc2)CC1)Nc1ccc(Cl)c(C(F)(F)F)c1`, the “activity change, negative = cytotoxicity” value is reported as inactive: 8.8%.
